{"source": "PubChem BioAssay AID485367", "about": "(National Center for Advancing Translational Sciences (NCATS), 2010)", "note": "Among all 330,000 compounds or so, about 560 (0.17%) were called active. The inconclusive results got no clear call from the source; some entries with a clear call stand among them for comparison. Calls come from the whole dose curve; as a rule, active = well fitted inhibition curve with a large enough effect; inconclusive = small, poorly fitted or top-dose-only effect, or effect the other way; inactive = flat fitted curve, though single readings scatter. Potencies of inconclusive entries are left out as doubtful fits. Potency is the fitted concentration of half-maximal effect; tags give direction and shape of the fitted curve."}
{"target": "ATP-dependent 6-phosphofructokinase (Trypanosoma brucei brucei) (UniProt O15648)", "sequence (O15648 whole entry, looked up)": "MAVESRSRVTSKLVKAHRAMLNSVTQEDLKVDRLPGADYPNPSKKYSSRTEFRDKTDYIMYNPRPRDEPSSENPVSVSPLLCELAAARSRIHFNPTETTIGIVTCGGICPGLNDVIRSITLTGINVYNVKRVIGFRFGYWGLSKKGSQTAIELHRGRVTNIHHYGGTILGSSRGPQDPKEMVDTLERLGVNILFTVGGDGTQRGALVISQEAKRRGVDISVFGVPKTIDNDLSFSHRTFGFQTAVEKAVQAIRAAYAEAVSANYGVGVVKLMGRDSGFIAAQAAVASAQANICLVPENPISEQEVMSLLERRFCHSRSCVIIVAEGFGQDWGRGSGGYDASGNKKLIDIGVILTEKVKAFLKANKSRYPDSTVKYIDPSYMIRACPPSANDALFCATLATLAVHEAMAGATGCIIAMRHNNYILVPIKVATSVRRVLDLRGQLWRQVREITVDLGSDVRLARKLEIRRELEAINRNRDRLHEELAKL", "test": "qHTS Assay to Find Inhibitors of T. brucei phosphofructokinase; note: nearly all actives have a fitted effect of over 60% in size", "settings": "T. brucei PFK, ADP-Glo luminescence; series mostly up to 57.5 µM", "procedure,_shortened": "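Compounds were pin-transferred as a titration series up to 57 uM into substrate buffer (0.5 mM F6P, 0.1 mM ATP, pH 8.0), then 1.25 nM PFK was added and reactions ran 45 min before ADP-Glo detection.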"}
{"smiles": "Cc1n[nH]c(=O)c2c(NC(=O)CSc3nn(-c4ccccc4)c(=S)s3)oc(C)c12", "Potency": "inactive"}
{"smiles": "O=C(O)c1ccc(NCc2ccc(Br)cc2)cc1", "Potency": "inconclusive [falling, single point]"}
{"smiles": "Cc1ccc(NC(=O)CSc2nnc(-c3cnccn3)n2C)cc1C", "Potency": "inconclusive [falling, single point]"}
{"smiles": "Cc1cc(C)cc(NC(=S)Nc2cccc3cnccc23)c1", "Potency": "inactive"}
{"smiles": "CCCOc1cc(CC(=O)NCc2ccco2)ccc1OC", "Potency": "inconclusive [falling, full curve, poor fit]"}
{"smiles": "O=C(O)Cn1cc(/C=C/[N+](=O)[O-])c2ccccc21", "Potency": "inconclusive [activator, single point]"}
{"smiles": "O=C(NCC(c1ccccc1Cl)N1CCCC1)c1ccc(N2CCCC2=O)cc1", "note": "(configuration not stated)", "Potency": "inconclusive [falling, single point]"}
{"smiles": "Cc1ccc(NC(=O)Cn2sc3nc(C)cc(C)c3c2=O)c(Cl)c1", "Potency": "active: 10.7 µM"}
{"smiles": "COc1ccc(C(=O)OCC(=O)NCc2ccco2)cc1OC", "Potency": "inconclusive [falling, full curve]"}
{"smiles": "CCc1ccc(CNC(=O)C2CCN(S(=O)(=O)N3CCCC3)CC2)cc1", "Potency": "inactive"}
{"smiles": "O=C(O)c1ccc2c(c1)C(=O)N(NC(=O)c1ccccc1)C2=O", "Potency": "inconclusive [falling, single point]"}
{"smiles": "CCOc1nc(-c2ccccc2Cl)nc2ccccc12", "Potency": "inactive"}
{"smiles": "Cc1cc2c(cc1[N+](=O)[O-])NC(CNC(C)C)CC2", "note": "(configuration not stated)", "Potency": "active: 12 µM"}
{"smiles": "CCOc1ccc(NC(=O)Cn2sc3nc(C)cc(C)c3c2=O)cc1", "Potency": "inconclusive [falling, full curve]"}
{"smiles": "Cc1ccc(-c2nc3cnccn3c2Nc2ccccc2)o1", "Potency": "inconclusive [falling, partial curve]"}
{"smiles": "O=C(Nc1ccccc1)Nc1cccc2cccnc12", "Potency": "inconclusive [falling, single point]"}
{"smiles": "NC(=O)CC1C(=O)N(c2ccccc2)C(=S)N1NC(=O)c1ccc(Br)cc1", "note": "(configuration not stated)", "Potency": "inconclusive [falling, partial curve]"}
{"smiles": "CC(C)(C)C(=O)[C@@H]1[C@@H]2C(=O)N(Cc3ccccc3)C(=O)[C@@H]2[C@H]2c3ccccc3C=CN12", "Potency": "inconclusive [activator, partial curve]"}
{"smiles": "Cc1cc(C)c(OCC(=O)Nc2cc(C(=O)O)cc(C(=O)O)c2)cc1C", "Potency": "active: 21.3 µM"}
{"smiles": "CCOC(=O)COc1ccccc1/C=C\\[N+](=O)[O-]", "Potency": "inconclusive [activator, full curve]"}
{"smiles": "CCc1ccc(NC(=O)COC(=O)/C=C/c2ccco2)cc1", "Potency": "inconclusive [falling, single point]"}
{"smiles": "COc1cc(/C=C(\\C#N)C(=O)NCC2CCCO2)ccc1OC(=O)c1ccco1", "note": "(configuration not stated)", "Potency": "inconclusive [activator, partial curve]"}
{"smiles": "CC(C)Cn1c(N)c(C(=O)COC(=O)Cc2cccc(C(F)(F)F)c2)c(=O)n(C)c1=O", "Potency": "inconclusive [falling, single point]"}
{"smiles": "CNC(=O)CN(Cc1ccccc1)S(=O)(=O)c1ccc(Cl)cc1", "Potency": "inactive"}
{"smiles": "Cc1nc(SCC(=O)N2CCOCC2)c2c3c(sc2n1)CCC3", "Potency": "inconclusive [falling, single point]"}
{"smiles": "O=C(COC(=O)c1ccccc1)NCc1ccco1", "Potency": "inconclusive [falling, partial curve]"}
{"smiles": "N#Cc1c(SCC(=O)Nc2nncs2)sc2c(O)cc(=O)[nH]c12", "Potency": "inconclusive [falling, full curve]"}
{"smiles": "O=C(/C=C/c1ccco1)Nc1ccc(C(=O)N2CCOCC2)cc1", "Potency": "inconclusive [falling, single point]"}
{"smiles": "COc1cccc(CNC(=O)CN(c2cc(C)cc(C)c2)S(=O)(=O)c2c(C)noc2C)c1", "Potency": "inactive"}
{"smiles": "COc1ccc2c(c1)[nH]c1c(=O)n(Cc3ccccn3)cnc12", "Potency": "inconclusive [activator, single point]"}
{"smiles": "Oc1ccc(C(=S)N2CCN(Cc3ccccc3)CC2)cc1", "Potency": "inconclusive [falling, partial curve]"}
{"smiles": "CSC(=NC#N)N1CCN(c2cccc(Cl)c2)CC1", "Potency": "active: 16.9 µM"}
{"smiles": "COc1ccccc1CNC(=O)COC(=O)c1cc(-c2ccco2)nc2ccccc12", "Potency": "inconclusive [falling, full curve]"}
{"smiles": "O=C(COC(=O)c1ccc(Cl)c(S(=O)(=O)N2CCOCC2)c1)Nc1ccc2[nH]c(=O)[nH]c2c1", "Potency": "inconclusive [falling, partial curve]"}
{"smiles": "Cc1cc(/C(N)=N/OC(=O)c2ccc(Cl)cc2)no1", "Potency": "inactive"}
{"smiles": "COc1ccc2c(c1)c(=O)oc1cc(OCC(=O)NC3CCCCC3)ccc12", "Potency": "inconclusive [falling, single point]"}
{"smiles": "O=C(O)CN1C(=O)/C(=C\\c2cc([N+](=O)[O-])ccc2OCc2ccccc2Cl)SC1=S", "Potency": "inconclusive [falling, single point]"}
{"smiles": "O=C(Nc1nc(-c2ccncc2)cs1)C1COc2ccccc2O1", "note": "(configuration not stated)", "Potency": "inconclusive [falling, single point]"}
{"smiles": "N=c1n(CCO)c2ccccc2n1CCOc1ccccc1", "Potency": "active: 23.9 µM"}
{"smiles": "Cc1nc2ccccc2c2oc(C(=O)N3CCN(C(=O)c4ccco4)CC3)cc12", "Potency": "inconclusive [falling, single point]"}
{"smiles": "CN1C(=O)/C(=C\\c2ccccc2F)Sc2ccc(C(=O)NC3CCN(Cc4ccccc4)CC3)cc21", "Potency": "inactive"}
{"smiles": "O=C(O)c1cc(S(=O)(=O)N2CCCCC2)ccc1N1CCOCC1", "Potency": "inconclusive [falling, single point]"}
{"smiles": "COc1ccc(CCN2C(=O)C3C4CC(C5C(C(=O)O)=NOC45)C3C2=O)cc1OC", "note": "(configuration not stated)", "Potency": "inconclusive [falling, single point]"}
{"smiles": "O=C(NCc1ccc(Cl)cc1)C(=O)NCC1OCCN1S(=O)(=O)c1ccc2c(c1)OCCO2", "note": "(configuration not stated)", "Potency": "inconclusive [falling, partial curve]"}
{"smiles": "Cc1ccc(NC(=O)C2=C(c3ccccc3)S(=O)(=O)CCS2(=O)=O)cc1", "Potency": "inconclusive [activator, partial curve]"}
{"smiles": "CCN(CC)S(=O)(=O)c1ccc(C(=O)NCc2ccc3c(c2)OCO3)cc1", "Potency": "inactive"}
{"smiles": "COc1ccc(N2Cc3cccc(C(=O)N4CCN(C(=O)c5ccco5)CC4)c3C2=O)cc1", "Potency": "inconclusive [falling, partial curve]"}
{"smiles": "O=C(NCc1ccc(Cl)cc1)C(=O)NCC1CCCN1S(=O)(=O)c1cccs1", "note": "(configuration not stated)", "Potency": "inconclusive [falling, single point]"}
{"smiles": "O=C(NCc1ccc(F)cc1)C1CCN(c2cnccn2)CC1", "Potency": "inconclusive [activator, single point]"}
{"smiles": "Cc1ccc(S(=O)(=O)N(C)Cc2ccc(C(=O)N/N=C/c3ccc(OC(F)F)cc3OC(F)F)cc2)cc1", "Potency": "inactive"}
{"smiles": "CC(C)c1ccc(NC2CCCN(C(=O)c3cc(C(C)C)nc(N)n3)C2)cc1", "note": "(configuration not stated)", "Potency": "inactive"}
{"smiles": "Oc1ccccc1-c1nc2c3ccccc3c3ccccc3c2[nH]1", "Potency": "inconclusive [falling, single point]"}
{"smiles": "Cn1cccc1C(=O)NNC(=O)COc1ccccc1F", "Potency": "inactive"}
{"smiles": "O=C(Nc1ccc(OC(F)(F)F)cc1)Nc1cccnc1", "Potency": "inconclusive [falling, partial curve]"}
{"smiles": "O=C(Cc1ccc([N+](=O)[O-])cc1)NCc1ccccn1", "Potency": "inconclusive [falling, partial curve]"}
{"smiles": "COc1ccccc1NC(=O)CSc1nc2ccccc2c(=O)n1C", "Potency": "inactive"}
{"smiles": "O=C(O)C(c1ccccc1)N1C(=O)/C(=C\\c2ccc(O)c(O)c2)SC1=S", "note": "(configuration not stated)", "Potency": "inconclusive [falling, partial curve]"}
{"smiles": "Cc1ccc(NC(=O)Nc2ccc(S(N)(=O)=O)cc2)cc1", "Potency": "active: 21.3 µM"}
{"smiles": "COc1cc2c(cc1NC(=O)CSc1nc3ccccc3[nH]1)oc1ccccc12", "Potency": "inactive"}
{"smiles": "O=C(CC(Nc1ccc(Cl)cc1)C(=O)O)c1ccccc1", "note": "(configuration not stated)", "Potency": "inconclusive [activator, partial curve]"}
{"smiles": "CC(C)(C)[C@H](N)C(=O)N[C@H]1CCC2C3CC=C4C[C@@H](O)CC[C@]4(C)C3CC[C@@]21C", "note": "(some centres not stated)", "Potency": "inconclusive [activator, single point]"}
{"smiles": "CC1CCCC(C(=O)O)N1C(=O)CCS", "note": "(configuration not stated)", "Potency": "inconclusive [activator, single point]"}
{"smiles": "Cc1ccc(-c2[nH][nH]c(=O)c(=O)c2N=Nc2ccccc2)cc1", "Potency": "inactive"}
{"smiles": "Cc1ccc(S(=O)(=O)N2CCOCC2)cc1C(=O)OCC(=O)Nc1ccc2[nH]c(=O)[nH]c2c1", "Potency": "inconclusive [falling, partial curve]"}
{"smiles": "O=C(Nc1ccc(-c2cn3ccccc3n2)cc1)c1cccs1", "Potency": "inconclusive [activator, single point]"}
{"smiles": "CC(C)(C)C(=O)Oc1ccc2cc(-c3ccc4ccccc4n3)c(=O)oc2c1", "Potency": "inactive"}
{"smiles": "Cc1cc(Cl)ccc1OCc1n[nH]c(=S)n1C1CCCCC1", "Potency": "inactive"}
{"smiles": "O=C(C1CCN(S(=O)(=O)c2cccnc2)CC1)N1CCN(c2cccc(Cl)c2)CC1", "Potency": "active: 21.3 µM"}
{"smiles": "S=C(Nc1ccc(Br)cc1)Nc1ccc2c(c1)OCCO2", "Potency": "inconclusive [falling, single point]"}
{"smiles": "CCCc1c(C(=O)NNc2ccccc2OC)cnn1-c1ccccc1", "Potency": "inactive"}
{"smiles": "CCCC(=O)c1cc(F)c(N2CCOCC2)cc1C", "Potency": "inactive"}
{"smiles": "Cc1ccc(C(=O)NCC2CCCN2S(=O)(=O)c2ccc(C)cc2)cc1", "note": "(configuration not stated)", "Potency": "inconclusive [activator, single point]"}
